# Some of the results follow.
# Experiments:
# Experiment in all cases: glycan array binding signal (z-score within array); higher = stronger binding
# Conditions in all cases: glycan notation: IUPAC condensed, linker removed
# Fuc(a1-2)Gal = biological target: Fuc(a1-2)Gal
# Procedure, shortened: (§1)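 The binding signal is a Z-score computed within each array and averaged over linkers. Arrays of the same protein sequence at different concentrations or buffers were also averaged together. Data originate from 3228 arrays in the Consortium for Functional Glycomics database, kept only where the protein sequence was available.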
# Fuc(a1-2)Gal(b1-3)GalNAc = biological target: Fuc(a1-2)Gal(b1-3)GalNAc
# Procedure, shortened: as §1
# [1] = biological target: Fuc(a1-2)Gal(b1-3)GalNAc(b1-3)Gal
# Procedure, shortened: as §1
# [2] = biological target: Fuc(a1-2)Gal(b1-3)GalNAc(b1-3)Gal(a1-4)Gal(b1-4)Glc
# Procedure, shortened: as §1
# [3] = biological target: Fuc(a1-2)Gal(b1-3)GalNAc(b1-4)[Neu5Ac(a2-3)]Gal(b1-4)Glc
# Procedure, shortened: as §1
# Fuc(a1-2)Gal(b1-3)GlcNAc = biological target: Fuc(a1-2)Gal(b1-3)GlcNAc
# Procedure, shortened: as §1
# [4] = biological target: Fuc(a1-2)Gal(b1-3)GlcNAc(b1-3)Gal(b1-4)Glc
# Procedure, shortened: as §1
# [5] = biological target: Fuc(a1-2)Gal(b1-3)[Fuc(a1-4)]GlcNAc
# Procedure, shortened: as §1
# Fuc(a1-2)Gal(b1-4)Glc = biological target: Fuc(a1-2)Gal(b1-4)Glc
# Procedure, shortened: as §1
# Fuc(a1-2)Gal(b1-4)Glc6S = biological target: Fuc(a1-2)Gal(b1-4)Glc6S
# Procedure, shortened: as §1
# Fuc(a1-2)Gal(b1-4)GlcNAc = biological target: Fuc(a1-2)Gal(b1-4)GlcNAc
# Procedure, shortened: as §1
# [6] = biological target: Fuc(a1-2)Gal(b1-4)GlcNAc(b1-3)Gal(b1-4)GlcNAc
# Procedure, shortened: as §1
# [7] = biological target: Fuc(a1-2)Gal(b1-4)GlcNAc(b1-3)Gal(b1-4)GlcNAc(b1-3)Gal(b1-4)GlcNAc
# Procedure, shortened: as §1
# [8] = biological target: Fuc(a1-2)Gal(b1-4)GlcNAc6S
# Procedure, shortened: as §1
# [9] = biological target: Fuc(a1-2)Gal(b1-4)[Fuc(a1-3)]GlcNAc
# Procedure, shortened: as §1
# [10] = biological target: Fuc(a1-2)Gal(b1-4)[Fuc(a1-3)]GlcNAc(b1-3)Gal(b1-4)[Fuc(a1-3)]GlcNAc
# Procedure, shortened: as §1
# [11] = biological target: Fuc(a1-2)Gal(b1-4)[Fuc(a1-3)]GlcNAc(b1-3)Gal(b1-4)[Fuc(a1-3)]GlcNAc(b1-3)Gal(b1-4)[Fuc(a1-3)]GlcNAc
# Procedure, shortened: as §1
# Fuc(a1-2)Gal6S(b1-4)Glc = biological target: Fuc(a1-2)Gal6S(b1-4)Glc
# Procedure, shortened: as §1
# [12] = biological target: Fuc(a1-2)Gal6S(b1-4)Glc6S
# Procedure, shortened: as §1
# [13] = biological target: Fuc(a1-2)Gal6S(b1-4)GlcNAc
# Procedure, shortened: as §1
# Fuc(a1-2)[Gal(a1-3)]Gal = biological target: Fuc(a1-2)[Gal(a1-3)]Gal
# Procedure, shortened: as §1
# [14] = biological target: Fuc(a1-2)[Gal(a1-3)]Gal(b1-3)GlcNAc
# Procedure, shortened: as §1
# [15] = biological target: Fuc(a1-2)[Gal(a1-3)]Gal(b1-4)Glc
# Procedure, shortened: as §1
# [16] = biological target: Fuc(a1-2)[Gal(a1-3)]Gal(b1-4)GlcNAc
# Procedure, shortened: as §1
# [17] = biological target: Fuc(a1-2)[Gal(a1-3)]Gal(b1-4)[Fuc(a1-3)]GlcNAc
# Procedure, shortened: as §1
# [18] = biological target: Fuc(a1-2)[Gal(a1-4)]Gal(b1-4)GlcNAc
# Procedure, shortened: as §1
# [19] = biological target: Fuc(a1-2)[GalNAc(a1-3)]Gal
# Procedure, shortened: as §1
# [20] = biological target: Fuc(a1-2)[GalNAc(a1-3)]Gal(b1-3)GlcNAc
# Procedure, shortened: as §1
# [21] = biological target: Fuc(a1-2)[GalNAc(a1-3)]Gal(b1-4)Glc
# Procedure, shortened: as §1
# [22] = biological target: Fuc(a1-2)[GalNAc(a1-3)]Gal(b1-4)GlcNAc
# Procedure, shortened: as §1
# [23] = biological target: Fuc(a1-2)[GalNAc(a1-3)]Gal(b1-4)[Fuc(a1-3)]GlcNAc
# Procedure, shortened: as §1
# [24] = biological target: Fuc(a1-2)[GalNAc(a1-4)]Gal(b1-4)GlcNAc
# Procedure, shortened: as §1
# [25] = biological target: Fuc(a1-2)[GalNAc(b1-3)]Gal
# Procedure, shortened: as §1
# Fuc(a1-3)GlcNAc = biological target: Fuc(a1-3)GlcNAc
# Procedure, shortened: as §1
# [26] = biological target: Fuc(a1-3)[Gal(b1-4)]Glc6S
# Procedure, shortened: as §1
# [27] = biological target: Fuc(a1-3)[Gal(b1-4)]GlcNAc
# Procedure, shortened: as §1
# [28] = biological target: Fuc(a1-3)[Gal(b1-4)]GlcNAc(b1-2)Man(a1-3)[Fuc(a1-3)[Gal(b1-4)]GlcNAc(b1-2)Man(a1-6)]Man(b1-4)GlcNAc(b1-4)GlcNAc
# Procedure, shortened: as §1
# [29] = biological target: Fuc(a1-3)[Gal(b1-4)]GlcNAc(b1-2)Man(a1-6)[Gal(b1-4)GlcNAc(b1-2)Man(a1-3)]Man(b1-4)GlcNAc(b1-4)GlcNAc
# Procedure, shortened: as §1
# [30] = biological target: Fuc(a1-3)[Gal(b1-4)]GlcNAc(b1-3)Gal(b1-3)[Fuc(a1-4)]GlcNAc
# Procedure, shortened: as §1
# [31] = biological target: Fuc(a1-3)[Gal(b1-4)]GlcNAc(b1-4)Gal(b1-4)[Fuc(a1-3)]GlcNAc
# Procedure, shortened: as §1
# [32] = biological target: Fuc(a1-3)[Gal(b1-4)]GlcNAc(b1-4)Gal(b1-4)[Fuc(a1-3)]GlcNAc(b1-4)Gal(b1-4)[Fuc(a1-3)]GlcNAc
# Procedure, shortened: as §1
# [33] = biological target: Fuc(a1-3)[Gal(b1-4)]GlcNAc6S
# Procedure, shortened: as §1
# [34] = biological target: Fuc(a1-3)[Gal3S(b1-4)]Glc6S
# Procedure, shortened: as §1
# [35] = biological target: Fuc(a1-3)[Gal3S(b1-4)]GlcNAc
# Procedure, shortened: as §1
# [36] = biological target: Fuc(a1-3)[Gal3S(b1-4)]GlcNAc6S
# Procedure, shortened: as §1
# [37] = biological target: Fuc(a1-3)[GalNAc(b1-4)]GlcNAc
# Procedure, shortened: as §1
# Fuc(a1-4)GlcNAc = biological target: Fuc(a1-4)GlcNAc
# Procedure, shortened: as §1
# Fuc(b1-3)GlcNAc = biological target: Fuc(b1-3)GlcNAc
# Procedure, shortened: as §1
# Gal(a1-2)Gal = biological target: Gal(a1-2)Gal
# Procedure, shortened: as §1
# Gal(a1-3)Gal = biological target: Gal(a1-3)Gal
# Procedure, shortened: as §1
# Gal(a1-3)Gal(b1-3)GlcNAc = biological target: Gal(a1-3)Gal(b1-3)GlcNAc
# Procedure, shortened: as §1
# Gal(a1-3)Gal(b1-4)Glc = biological target: Gal(a1-3)Gal(b1-4)Glc
# Procedure, shortened: as §1
# Gal(a1-3)Gal(b1-4)GlcNAc = biological target: Gal(a1-3)Gal(b1-4)GlcNAc
# Procedure, shortened: as §1
# [38] = biological target: Gal(a1-3)Gal(b1-4)[Fuc(a1-3)]GlcNAc
# Procedure, shortened: as §1
# Gal(a1-3)GalNAc = biological target: Gal(a1-3)GalNAc
# Procedure, shortened: as §1
# [39] = biological target: Gal(a1-3)[Gal(a1-4)]Gal(b1-4)GlcNAc
# Procedure, shortened: as §1
# Gal(a1-4)Gal(b1-4)Glc = biological target: Gal(a1-4)Gal(b1-4)Glc
# Procedure, shortened: as §1
# Gal(a1-4)Gal(b1-4)GlcNAc = biological target: Gal(a1-4)Gal(b1-4)GlcNAc
# Procedure, shortened: as §1
# Gal(a1-4)GlcNAc = biological target: Gal(a1-4)GlcNAc
# Procedure, shortened: as §1
# Gal(a1-6)Glc = biological target: Gal(a1-6)Glc
# Procedure, shortened: as §1
binder,measurement,setting,value
"Glycodelin A (Homo sapiens), P09466 (protein) MLCLLLTLGVALVCGVPAMDIPQTKQDLELPKLAGTWHSMAMATNNISLMATLKAPLRVHITSLLPTPEDNLEIVLHRWENNSCVEKKVLGEKTENPKKFKINYTVANEATLLDTDYDNFLFLCLQDTTTPIQSMMCQYLARVLVEDDEIMQGFIRAFRPLPRHLWYLLDLKQMEEPCRF",glycan array binding signal (z-score),Fuc(a1-2)Gal,-0.459
same,glycan array binding signal (z-score),Fuc(a1-2)Gal(b1-3)GalNAc,-0.421
same,glycan array binding signal (z-score),[1],-0.414
same,glycan array binding signal (z-score),[2],-0.485
same,glycan array binding signal (z-score),[3],-0.436
same,glycan array binding signal (z-score),Fuc(a1-2)Gal(b1-3)GlcNAc,-0.318
same,glycan array binding signal (z-score),[4],-0.436
same,glycan array binding signal (z-score),[5],-0.359
same,glycan array binding signal (z-score),Fuc(a1-2)Gal(b1-4)Glc,-0.389
same,glycan array binding signal (z-score),Fuc(a1-2)Gal(b1-4)Glc6S,-0.412
same,glycan array binding signal (z-score),Fuc(a1-2)Gal(b1-4)GlcNAc,-0.318
same,glycan array binding signal (z-score),[6],-0.423
same,glycan array binding signal (z-score),[7],-0.263
same,glycan array binding signal (z-score),[8],-0.327
same,glycan array binding signal (z-score),[9],-0.366
same,glycan array binding signal (z-score),[10],1.67
same,glycan array binding signal (z-score),[11],1.67
same,glycan array binding signal (z-score),Fuc(a1-2)Gal6S(b1-4)Glc,-0.143
same,glycan array binding signal (z-score),[12],0.059
same,glycan array binding signal (z-score),[13],-0.102
same,glycan array binding signal (z-score),Fuc(a1-2)[Gal(a1-3)]Gal,-0.43
same,glycan array binding signal (z-score),[14],-0.538
same,glycan array binding signal (z-score),[15],-0.437
same,glycan array binding signal (z-score),[16],-0.45
same,glycan array binding signal (z-score),[17],-0.422
same,glycan array binding signal (z-score),[18],-0.252
same,glycan array binding signal (z-score),[19],-0.378
same,glycan array binding signal (z-score),[20],-0.415
same,glycan array binding signal (z-score),[21],-0.481
same,glycan array binding signal (z-score),[22],-0.45
same,glycan array binding signal (z-score),[23],-0.439
same,glycan array binding signal (z-score),[24],-0.476
same,glycan array binding signal (z-score),[25],-0.301
same,glycan array binding signal (z-score),Fuc(a1-3)GlcNAc,-0.334
same,glycan array binding signal (z-score),[26],-0.379
same,glycan array binding signal (z-score),[27],-0.418
same,glycan array binding signal (z-score),[28],0.504
same,glycan array binding signal (z-score),[29],-0.311
same,glycan array binding signal (z-score),[30],-0.319
same,glycan array binding signal (z-score),[31],-0.372
same,glycan array binding signal (z-score),[32],-0.399
same,glycan array binding signal (z-score),[33],-0.274
same,glycan array binding signal (z-score),[34],-0.384
same,glycan array binding signal (z-score),[35],-0.36
same,glycan array binding signal (z-score),[36],-0.41
same,glycan array binding signal (z-score),[37],-0.398
same,glycan array binding signal (z-score),Fuc(a1-4)GlcNAc,0.667
same,glycan array binding signal (z-score),Fuc(b1-3)GlcNAc,1.1
same,glycan array binding signal (z-score),Gal(a1-2)Gal,-0.246
same,glycan array binding signal (z-score),Gal(a1-3)Gal,-0.384
same,glycan array binding signal (z-score),Gal(a1-3)Gal(b1-3)GlcNAc,4.32
same,glycan array binding signal (z-score),Gal(a1-3)Gal(b1-4)Glc,-0.285
same,glycan array binding signal (z-score),Gal(a1-3)Gal(b1-4)GlcNAc,2.51
same,glycan array binding signal (z-score),[38],-0.419
same,glycan array binding signal (z-score),Gal(a1-3)GalNAc,-0.421
same,glycan array binding signal (z-score),[39],-0.381
same,glycan array binding signal (z-score),Gal(a1-4)Gal(b1-4)Glc,-0.405
same,glycan array binding signal (z-score),Gal(a1-4)Gal(b1-4)GlcNAc,-0.453
same,glycan array binding signal (z-score),Gal(a1-4)GlcNAc,-0.459
same,glycan array binding signal (z-score),Gal(a1-6)Glc,-0.505
